Measurements taken from PubChem BioAssay (NCATS).
This list was built around the results that the source calls inconclusive (neither active nor inactive); the mix of calls is not that of the screen. For some assays here: Where the call is inconclusive, the potency comes from a doubtful curve fit. For some assays here: A note “side channel” means that the fit belongs to a control or component signal, not to the main read-out. Activity calls are given as the source filed them. Unless noted, the call rests on the fitted dose curve; in most records, active means well fitted curve in the direction sought with a large enough effect; inconclusive means small, poorly fitted or top-dose-only effect, or another doubt; inactive means no such curve, though single readings can be large; an effect the other way counts as inactive or inconclusive.

What was measured:
[1] = Cell Viability - LYMP2-025 (AID 976); conditions: LYMP2-025 lymphoblastoid cell viability; activity change, negative = cytotoxicity: at 92.2 µM (top of the series); further: potency means the concentration at half of the fitted maximal effect
Outline: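 In qHTS format, LYMP2-025 lymphoblastoid cells in complete culture medium received compound for 24 hr; ATP-based CellTiter-Glo signal gave viability, with AC50 derived by Hill equation.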

[2] = Cell Viability - LYMP2-002 (AID 977); conditions: LYMP2-002 lymphoblastoid cell viability, qHTS; activity change, negative = cytotoxic: at 92.2 µM (top of the series); further: potency means the concentration at half of the fitted maximal effect
Outline: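 Human lymphoblastoid LYMP2-002 cells, 2500 per well, exposed to compounds for 24 h at 37 C in complete medium; viability read as intracellular ATP by CellTiter-Glo luminescence, AC50 from Hill fits.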

[3] = Cell Viability - LYMP2-006 (AID 978); further: potency means the concentration at half of the fitted maximal effect; nearly all actives have a fitted effect of over 60% in size
Outline: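 Potency values are Hill-fit AC50s for decreases in intracellular ATP (CellTiter-Glo luminescence). LYMP2-006 lymphoblastoid cells, 2500 per well, were exposed to compound in complete culture medium for 24 hr at 37 C.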

[4] = Cell Viability - LYMP2-007 (AID 979); conditions: LYMP2-007 lymphoblastoid cell viability; activity change, negative = cytotoxicity: at 92.2 µM (top of the series);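 further: potency means the concentration at half of the fitted maximal effect; cells exposed to compound for 24 h before reading; nearly all actives have a fitted effect of over 60% in size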
Outline: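 Acute toxicity is scored as a concentration-dependent fall in intracellular ATP in human lymphoblastoid cells treated 24 hr at 37 C, measured by luciferase luminescence; Hill-equation modelling yields AC50.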

[5] = Cell Viability - LYMP2-008 (AID 980); conditions: LYMP2-008 lymphoblastoid cell viability, qHTS; further: potency means the concentration at half of the fitted maximal effect; nearly all actives have a fitted effect of over 60% in size
Outline: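 Acute cytotoxicity is scored as concentration-dependent loss of cellular ATP in a human lymphoblastoid line after 24 hr treatment at 37 C. ATP is quantified by luciferase luminescence.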

[6] = Cell Viability - LYMP2-010 (AID 981); further: potency means the concentration at half of the fitted maximal effect; nearly all actives have a fitted effect of over 55% in size
Outline: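 Acute toxicity is scored as a concentration-dependent loss of cellular ATP in human lymphoblastoid cells after 24 hr compound exposure in complete medium. Tetraoctylammonium bromide is the positive control.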

[7] = Cell Viability - LYMP2-014 (AID 983); further: potency means the concentration at half of the fitted maximal effect; nearly all actives have a fitted effect of over 50% in size
Outline: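 Decrease in intracellular ATP after 24 hr treatment at 37 C, measured by luciferase luminescence, indicated cytotoxicity. Concentration-response data were fitted with the standard Hill equation to give AC50.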

[8] = Cell Viability - LYMP2-016 (AID 984); conditions: LYMP2-016 lymphoblastoid cell viability, qHTS; activity change, negative = cytotoxicity: at 92.2 µM (top of the series); further: potency means the concentration at half of the fitted maximal effect; nearly all actives have a fitted effect of over 55% in size
Outline: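 Cytotoxicity was scored by luminescent ATP content (CellTiter-Glo) after 24 h compound exposure at 37 C of a human lymphoblastoid line at 2500 cells/well. Concentration-response data were fitted to the Hill equation for AC50.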

[9] = Cell Viability - LYMP2-018 (AID 985);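 further: potency means the concentration at half of the fitted maximal effect; compound exposure lasted 24 hr at 37 °C; nearly all actives have a fitted effect of over 50% in size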
Outline: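 Acute cytotoxicity is scored as a concentration-dependent drop in intracellular ATP after 24 hr exposure of the lymphoblastoid line in complete culture medium, measured by luciferase luminescence. Potency is expressed as AC50 from Hill modelling.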

[10] = Cell Viability - LYMP2-020 (AID 986); conditions: activity change, negative = viability loss: at 92.2 µM (top of the series); further: potency means the concentration at half of the fitted maximal effect; nearly all actives have a fitted effect of over 55% in size
Outline: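 Acute cytotoxicity in a human lymphoblastoid line is scored as a concentration-dependent fall in cellular ATP after 24 hr at 37 C in complete medium. The positive control is tetraoctylammonium bromide, and potency is given as Hill-fit AC50.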

[11] = Cell Viability - LYMP2-022 (AID 987); further: potency means the concentration at half of the fitted maximal effect; nearly all actives have a fitted effect of over 55% in size
Outline: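 Acute toxicity in a human lymphoblastoid line is scored as decreased intracellular ATP after 24 hr compound treatment at 37 C. ATP is measured by CellTiter-Glo luminescence; curves are fitted with the Hill equation to give AC50.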

[12] = Cell Viability - LYMP2-024 (AID 988); conditions: LYMP2-024 lymphoblastoid cell viability; activity change, negative = cytotoxicity: at 92.2 µM (top of the series); further: potency means the concentration at half of the fitted maximal effect; nearly all actives have a fitted effect of over 60% in size
Outline: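 Acute toxicity is measured as concentration-dependent loss of intracellular ATP in a human lymphoblastoid line treated 24 hours at 37 C. Luciferase luminescence quantifies ATP; AC50 values come from standard Hill-equation modelling.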

[13] = Cell Viability - LYMP2-026 (AID 989); further: potency means the concentration at half of the fitted maximal effect; nearly all actives have a fitted effect of over 50% in size
Outline: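 Concentration-dependent loss of intracellular ATP in human lymphoblastoid cells after 24 hr at 37 C, quantified by luciferase luminescence. AC50 derived from standard Hill equation.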

[14] = Cell Viability - LYMP1-002 - Assay at 24 hr (AID 993); further: potency means the concentration at half of the fitted maximal effect
Outline: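 qHTS, LYMP1-002 lymphoblastoid, 24 h cpd, 37 C, CellTiter-Glo ATP luminescence; AC50 via Hill eq.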

[15] = Cell Viability - LYMP1-002 - Assay at 40 hr (AID 994)
Outline: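 Viability in the human lymphoblastoid line was measured as intracellular ATP via CellTiter-Glo after 40 hr compound exposure. Tetraoctylammonium bromide served as positive control.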

[16] = qHTS Assay for Identification of Small Molecule Inducers of Hypoxia Response (AID 2120; active means well fitted curve in the direction sought with a large enough effect in the signal ratio, with a control signal flat, not every such curve was filed as active; inconclusive means small, poorly fitted or top-dose-only effect, or a change in a side signal; inactive means no such curve, though single readings can be large or run the other way; the % refers to the signal ratio; further: potency means the concentration at half of the fitted maximal effect); conditions: hypoxia response reporter cells, beta-lactamase ratio readout; activation: at 104 µM (top of the series)
Outline: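 Induction of beta-lactamase reporter activity was measured in CellSensor HRE-bla ME-180 cells after 17 h compound treatment at 37 degrees C, using CCF4 substrate and the 460nm/530nm emission ratio to derive AC50 values.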

[17] = biological target: Androgen receptor (Homo sapiens) (UniProt P10275); assay: qHTS assay for small molecule agonists of androgen receptor signaling (AID 588515; active means well fitted curve in the direction sought with a large enough effect in the signal ratio, with a control signal flat; inconclusive means small, poorly fitted or top-dose-only effect, or effect the other way, or a change in a side signal; inactive means no such curve, though single readings can be large or run the other way; the % refers to the signal ratio; further: on the % scale 0 is the no-effect control and ±100 the full control effect); conditions: AR-UAS-bla HEK293, beta-lactamase ratio, agonist 16 h; activation: active compounds read high
Chain of UniProt P10275 (P10275 whole entry, looked up): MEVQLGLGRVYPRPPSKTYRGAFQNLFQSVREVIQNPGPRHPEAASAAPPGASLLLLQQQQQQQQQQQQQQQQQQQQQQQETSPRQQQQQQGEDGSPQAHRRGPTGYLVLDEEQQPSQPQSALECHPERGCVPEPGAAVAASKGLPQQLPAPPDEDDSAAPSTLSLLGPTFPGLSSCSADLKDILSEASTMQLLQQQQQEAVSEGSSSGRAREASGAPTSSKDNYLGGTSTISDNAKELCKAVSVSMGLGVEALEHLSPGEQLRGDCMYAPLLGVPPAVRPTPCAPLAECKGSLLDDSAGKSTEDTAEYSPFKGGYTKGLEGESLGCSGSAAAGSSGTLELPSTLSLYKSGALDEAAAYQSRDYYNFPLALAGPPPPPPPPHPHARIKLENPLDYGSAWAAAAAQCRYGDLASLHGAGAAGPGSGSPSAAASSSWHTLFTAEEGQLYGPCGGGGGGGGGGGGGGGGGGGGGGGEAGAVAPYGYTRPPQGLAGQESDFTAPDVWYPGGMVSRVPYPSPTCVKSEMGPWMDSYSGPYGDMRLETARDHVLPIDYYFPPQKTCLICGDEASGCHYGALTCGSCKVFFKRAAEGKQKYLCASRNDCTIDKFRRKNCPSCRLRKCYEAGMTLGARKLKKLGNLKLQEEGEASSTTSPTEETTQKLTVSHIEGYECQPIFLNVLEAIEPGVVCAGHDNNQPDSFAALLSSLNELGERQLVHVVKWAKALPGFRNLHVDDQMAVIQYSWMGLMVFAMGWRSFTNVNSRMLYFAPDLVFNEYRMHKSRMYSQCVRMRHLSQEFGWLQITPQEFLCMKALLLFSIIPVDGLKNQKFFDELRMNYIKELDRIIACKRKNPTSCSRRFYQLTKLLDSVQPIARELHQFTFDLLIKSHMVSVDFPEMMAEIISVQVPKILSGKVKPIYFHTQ
Outline: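 EC50 and efficacy came from Hill fits of titrations (up to 92 uM) normalized to 30 nM R1881 as 100% and DMSO as 0%. Compound exposure was 16 h at 37 C on AR-UAS-bla HEK293 cells, with a 405/460/530 nm CCF4 fluorescence read.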

[18] = biological target: Androgen receptor (Homo sapiens) (UniProt P10275); assay: qHTS assay for small molecule antagonists of androgen receptor signaling (AID 588516; active means well fitted curve in the direction sought with a large enough effect in the signal ratio, with a control signal flat, not every such curve was filed as active; inconclusive means small, poorly fitted or top-dose-only effect, or effect the other way, or a change in a side signal; inactive means no such curve, though single readings can be large or run the other way; the % refers to the signal ratio; further: on the % scale 0 is the no-effect control and ±100 the full control effect); conditions: AR-UAS-bla HEK293, beta-lactamase ratio, antagonist mode, 16 h; activity change, negative = inhibition: at 76.8 µM (top of the series)
Outline: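 Antagonist mode: inhibition of R1881-stimulated (10 nM final) bla reporter in GeneBLAzer AR HEK 293 cells, 16 h at 37C, compounds titrated. IC50 and efficacy from Hill-equation fits of 405/460–530 nm FRET ratios.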

[19] = biological target: Bile acid receptor (Homo sapiens) (UniProt Q96RI1); assay: qHTS assay for small molecule agonists of farnesoid X receptor signaling (AID 588527; calls by dose curve; further: potency means the concentration at half of the fitted maximal effect); conditions: HEK293T FXR-UAS-bla, beta-lactamase ratio, 16 h; activation: active compounds read high
Outline: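 FXR-UAS-bla HEK293T cells (10% dialyzed FBS) preincubated 5-7 h at 37 C, then compounds at up to 92 uM for 16 h at 37 C. CCF4 beta-lactamase read-out after 2 h RT. Normalized to chenodeoxycholic acid (100 uM) and DMSO; Hill fit gave EC50 and efficacy.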

[20] = biological target: Glucocorticoid receptor (Homo sapiens) (UniProt P04150); assay: qHTS assay for small molecule agonists of glucocorticoid receptor signaling (AID 588532; active means well fitted curve in the direction sought with a large enough effect in the signal ratio, with a control signal flat; inconclusive means small, poorly fitted or top-dose-only effect, or a change in a side signal; inactive means no such curve, though single readings can be large or run the other way; the % refers to the signal ratio; further: potency means the concentration at half of the fitted maximal effect); conditions: HeLa MMTV-bla, beta-lactamase ratio, agonist, 18 h; activation: active compounds read high, percent of dexamethasone control, DMSO zero
Outline: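 MMTV-bla HeLa beta-lactamase reporter cells in 1% charcoal/dextran FBS medium, compounds up to 92 uM for 18 h at 37 C, CCF4 readout; normalized to 0.1 uM dexamethasone (100%), EC50 and efficacy from Hill fits.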

[21] = biological target: Peroxisome proliferator-activated receptor gamma (Homo sapiens) (UniProt P37231); assay: qHTS assay for small molecule agonists of peroxisome proliferator-activated receptor gamma signaling (AID 588536; active means well fitted curve in the direction sought with a large enough effect in the signal ratio, with a control signal flat, not every such curve was filed as active; inconclusive means small, poorly fitted or top-dose-only effect, or effect the other way, or a change in a side signal; inactive means no such curve, though single readings can be large or run the other way; the % refers to the signal ratio; further: potency means the concentration at half of the fitted maximal effect); conditions: HEK293 PPARg-UAS-bla, beta-lactamase ratio, 16 h; activation: at 76.7 µM (top of the series), percent of rosiglitazone response, DMSO as zero
Outline: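 GeneBLAzer PPAR-gamma-UAS-bla HEK293 cells in 1% charcoal/dextran-treated FBS medium were treated 16 h at 37 C with compounds. Beta-lactamase activity was read by CCF4 ratio (460/530 nm). Response was normalized to 2 uM rosiglitazone (100%) and DMSO, then Hill-fitted for EC50 and efficacy.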

[22] = biological target: Peroxisome proliferator-activated receptor gamma (Homo sapiens) (UniProt P37231); assay: qHTS assay for small molecule antagonists of peroxisome proliferator-activated receptor gamma signaling (AID 588537; active means well fitted inhibition curve with a large enough effect in the signal ratio, with a control signal flat, not every such curve was filed as active; inconclusive means small, poorly fitted or top-dose-only effect, or effect the other way, or a change in a side signal; the % refers to the signal ratio); conditions: HEK293 PPARg-UAS-bla, beta-lactamase ratio, antagonist mode; activity, negative = inhibition: at 76.8 µM (top of the series)
Outline: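 Step one: plate 3000 HEK293 UAS-bla cells per well in medium with 1% stripped serum and hold 6-6.5 h at 37 C. Step two: add compound and 50 nM agonist for 16 h. Step three: CCF4 loading, fluorescence read.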

[23] = biological target: Thyroid hormone receptor beta (Homo sapiens) (UniProt P10828); assay: qHTS assay for small molecule antagonists of thyroid hormone receptor beta signaling (AID 588547; active means well fitted inhibition curve with a large enough effect in the signal ratio, with a control signal flat, not every such curve was filed as active; inconclusive means small, poorly fitted or top-dose-only effect, or effect the other way, or a change in a side signal; the % refers to the signal ratio;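 further: cells stimulated with 0.4 nM T3 agonist during compound exposure; on the % scale 0 is the no-effect control and ±100 the full control effect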); conditions: TR-UAS-bla HEK293, beta-lactamase ratio, antagonist mode, 18 h
Chain of UniProt P10828 (P10828 whole entry, looked up): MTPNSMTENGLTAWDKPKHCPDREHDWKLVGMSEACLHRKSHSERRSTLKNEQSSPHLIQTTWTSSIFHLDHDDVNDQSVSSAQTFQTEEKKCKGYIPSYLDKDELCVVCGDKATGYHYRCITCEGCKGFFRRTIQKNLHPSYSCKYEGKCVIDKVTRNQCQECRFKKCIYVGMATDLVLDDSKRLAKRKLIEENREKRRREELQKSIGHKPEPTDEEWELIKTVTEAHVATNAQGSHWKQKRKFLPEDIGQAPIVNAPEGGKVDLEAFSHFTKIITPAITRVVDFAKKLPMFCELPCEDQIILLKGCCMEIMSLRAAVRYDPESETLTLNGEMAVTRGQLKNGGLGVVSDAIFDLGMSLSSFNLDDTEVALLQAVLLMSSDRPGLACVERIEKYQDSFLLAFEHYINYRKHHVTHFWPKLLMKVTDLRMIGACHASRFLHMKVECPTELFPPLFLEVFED
Outline: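 TR-UAS-bla GripTite HEK293 cells in 2% charcoal/dextran FBS medium; compounds 0.59 nM to 92 uM with T3 at 0.4nM final, 18 h at 37 C. Beta-lactamase read by CCF4 fluorescence (460/530 nm); Hill fits gave IC50 and efficacy.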

[24] = qHTS assay for small molecule disruptors of the mitochondrial membrane potential - 1 hr assay (AID 651754; calls by dose curve; further: potency means the concentration at half of the fitted maximal effect; nearly all actives have a fitted effect of over 35% in size); conditions: ratio change, negative = depolarisation: at 92.2 µM (top of the series)
Outline: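 Steps: seed HepG2 cells and let attach overnight; pin-transfer compound or vehicle; incubate 1 hr at 37C; add Mito-MPS dye for 30 min; read two-channel fluorescence for monomer and aggregate forms.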

[25] = qHTS assay for small molecule disruptors of the mitochondrial membrane potential - 5 hr assay (AID 651755; calls by dose curve; further: potency means the concentration at half of the fitted maximal effect; nearly all actives have a fitted effect of over 40% in size); conditions: JC-1-type ratio dye; ratio change, negative = disruption: at 92.2 µM (top of the series)
Outline: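 HepG2 cells (2,000/well), attached overnight, exposed to compound 5 hr at 37C, then Mito-MPS dye 30 min. Fluorescence read for monomers (490/535 nm) and aggregates (540/590 nm).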

[26] = biological target: Tumor necrosis factor (Homo sapiens) (UniProt P01375); assay: qHTS assay to identify small molecules that stimulate Tumor Necrosis Factor-alpha (TNF-alpha) secretion (AID 651757; active means well fitted curve in the direction sought with a large enough effect in the signal ratio; inconclusive means small, poorly fitted or top-dose-only effect, or a change in a side signal; inactive means no such curve, though single readings can be large or run the other way; the % refers to the signal ratio; further: 0% is about no effect); conditions: Human cells, HTRF 665/615 ratio; activation (TNF-alpha secretion): at 92.2 µM (top of the series)
Chain of UniProt P01375 (P01375 whole entry, looked up): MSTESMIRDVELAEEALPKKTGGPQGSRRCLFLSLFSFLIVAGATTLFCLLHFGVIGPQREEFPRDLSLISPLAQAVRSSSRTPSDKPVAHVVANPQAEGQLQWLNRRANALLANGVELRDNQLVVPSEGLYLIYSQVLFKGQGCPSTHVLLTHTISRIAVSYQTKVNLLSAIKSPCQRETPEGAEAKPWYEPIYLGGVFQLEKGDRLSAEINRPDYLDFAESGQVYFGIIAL
Outline: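 Secreted TNF-alpha from compound-treated THP-1 cells (17 hrs, 37 C) was quantified with a homogeneous time-resolved fluorescence antibody assay.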

[27] = qHTS assay to identify small molecules that stimulate interleukin-8 (IL-8) secretion (AID 651758; active means well fitted activation curve with a large enough effect in the signal ratio; inconclusive means small, poorly fitted or top-dose-only effect, or effect the other way, or a change in a side signal; the % refers to the signal ratio; further: 0% is about no effect); conditions: HTRF ratio (665/615); activation: at 92.2 µM (top of the series)
Outline: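 THP-1 cells (2000/well) exposed to compound 16 h at 37 C; secreted IL-8 then detected by HTRF with cryptate- and XL665-labelled anti-IL-8 antibody pair after 1-3 h at room temperature.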

[28] = qHTS assay for cell viability of HEK293 cells (AID 743288); conditions: ATP luminescence (CellTiter-Glo), 18 h; max response: active compounds read low; further: potency means the concentration at half of the fitted maximal effect; nearly all actives have a fitted effect of over 50% in size
Outline: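 Total intracellular ATP, measured with a luciferase-coupled reagent, indicates the number of viable HEK293 cells. Exposure to test chemicals lasts 18 h at 37 C in 1,536-well format at 2,000 cells/well.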

[29] = qHTS assay for cell viability of the p53RE-bla HCT-116 cell line (AID 743292)
Outline: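 Compound-exposed HCT-116 (p53RE-bla) cells, 4,000 per well, were kept 16 h at 37 C following a 5 h preincubation. Cell number was estimated from total ATP by CellTiter-Glo luminescence read after 30 min at room temperature.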
Tags describe the fitted curve by direction and shape or compound fluorescence and quenching.

Cc1ccc(S(=O)(=O)Oc2ccc(N=Nc3ccc(-c4ccc(N=Nc5c(O)ccc6cc(S(=O)(=O)O)cc(S(=O)(=O)O)c56)c(C)c4)cc3C)cc2)cc1
inactive: activity change % (negative = inhibition) [23] 6.13%
inconclusive: Potency [1] 39.8 µM [cytotoxic, partial curve] | Potency [2] 39.8 µM [cytotoxic, partial curve, poor fit] | Potency [3] 39.8 µM [cytotoxic, partial curve] | Potency [4] 39.8 µM [cytotoxic, partial curve] | Potency [5] 31.6 µM [cytotoxic, partial curve] | Potency [6] 39.8 µM [cytotoxic, partial curve] | Potency [7] 31.6 µM [cytotoxic, partial curve] | Potency [8] 39.8 µM [cytotoxic, partial curve] | Potency [9] 39.8 µM [cytotoxic, partial curve] | Potency [10] 50.1 µM [cytotoxic, partial curve, poor fit] | Potency [11] 31.6 µM [cytotoxic, full curve, poor fit] | Potency [12] 39.8 µM [cytotoxic, partial curve] | Potency [13] 39.8 µM [cytotoxic, partial curve] | Potency [14] 39.8 µM [cytotoxic, partial curve] | Potency [15] 39.8 µM [cytotoxic, partial curve] | Potency [16] 39.8 µM [side channel, falling, partial curve] | activation [17] -13.8% | activity change, negative = inhibition [18] -27.8% | Potency [19] 25.1 µM [side channel, rising, single point] | Potency [20] 14.1 µM [side channel, falling, partial curve, poor fit] | Potency [21] 44.7 µM [cytotoxic, side channel, partial curve] | Potency [22] 22.4 µM [cytotoxic, side channel, partial curve] | Potency [24] 15.8 µM [side channel, falling, partial curve] | Potency [25] 15.8 µM [cytotoxic, side channel, partial curve] | activation (TNF-alpha secretion) [26] 0.593% | activation [27] 2.03% | Potency [28] 35.5 µM [cytotoxic, partial curve] | Potency [29] 35.5 µM [cytotoxic, partial curve]
